{
  "source": "the antibiotic and cytotoxicity screens of Wong et al. (2023)",
  "key": {"[1]": {"tested_on": "HSkMC (human skeletal muscle cells)", "assay": "cytotoxicity call (relative viability < 0.9)", "conditions": "10 µM"}, "[2]": {"tested_on": "HepG2", "assay": "cytotoxicity call (relative viability < 0.9)", "conditions": "10 µM"}, "[3]": {"tested_on": "S. aureus RN4220", "assay": "growth inhibition call (relative growth <= 0.2)", "conditions": "50 µM"}},
  "note": "The list shows a part of the results.",
  "data": [
    {"smiles": "CC(=O)NC[C@H]1CN(c2ccc(N3CCN(C(=O)CO)CC3)c(F)c2)C(=O)O1", "values": [
      {"measurement": "cytotoxicity call", "setting": "[1]", "result": "inactive"},
      {"measurement": "cytotoxicity call", "setting": "[2]", "result": "inactive"},
      {"measurement": "growth inhibition call", "setting": "[3]", "result": "active"}
    ]},
    {"smiles": "O=C(C[C@H]1C[C@H]2c3cc(NC(=O)Nc4ccc(C(F)(F)F)cc4)ccc3O[C@H]2[C@@H](CO)O1)NCc1ccc(Cl)cc1", "values": [
      {"measurement": "cytotoxicity call", "setting": "[1]", "result": "inactive"},
      {"measurement": "cytotoxicity call", "setting": "[2]", "result": "inactive"},
      {"measurement": "growth inhibition call", "setting": "[3]", "result": "inactive"}
    ]},
    {"smiles": "C[C@@H]1CN([C@@H](C)CO)C(=O)Cc2cc(NC(=O)CCN3CCOCC3)ccc2O[C@H]1CN(C)S(=O)(=O)c1cccs1", "values": [
      {"measurement": "cytotoxicity call", "setting": "[1]", "result": "inactive"},
      {"measurement": "cytotoxicity call", "setting": "[2]", "result": "inactive"},
      {"measurement": "growth inhibition call", "setting": "[3]", "result": "inactive"}
    ]},
    {"smiles": "C[C@@H]1CN([C@@H](C)CO)C(=O)c2cc(NC(=O)Nc3ccc(C(F)(F)F)cc3)ccc2O[C@@H](C)CCCCO[C@H]1CN(C)C", "values": [
      {"measurement": "cytotoxicity call", "setting": "[1]", "result": "inactive"},
      {"measurement": "cytotoxicity call", "setting": "[2]", "result": "inactive"},
      {"measurement": "growth inhibition call", "setting": "[3]", "result": "inactive"}
    ]},
    {"smiles": "C[C@@H]1CCCCO[C@H](CN(C)Cc2ccc(C(F)(F)F)cc2)[C@@H](C)CN([C@H](C)CO)C(=O)c2cc(NC(=O)NC3CCCCC3)ccc2O1", "values": [
      {"measurement": "cytotoxicity call", "setting": "[1]", "result": "inactive"},
      {"measurement": "cytotoxicity call", "setting": "[2]", "result": "active"},
      {"measurement": "growth inhibition call", "setting": "[3]", "result": "inactive"}
    ]},
    {"smiles": "COc1ccc(CN(C)C[C@@H]2Oc3ccc(NC(=O)CCN4CCOCC4)cc3CC(=O)N([C@H](C)CO)C[C@H]2C)cc1", "values": [
      {"measurement": "cytotoxicity call", "setting": "[1]", "result": "inactive"},
      {"measurement": "cytotoxicity call", "setting": "[2]", "result": "inactive"},
      {"measurement": "growth inhibition call", "setting": "[3]", "result": "inactive"}
    ]},
    {"smiles": "C[C@H](CO)N1C[C@H](C)[C@@H](CN(C)S(=O)(=O)c2cccs2)Oc2ccc(NC(=O)CCC(F)(F)F)cc2CC1=O", "values": [
      {"measurement": "cytotoxicity call", "setting": "[1]", "result": "inactive"},
      {"measurement": "cytotoxicity call", "setting": "[2]", "result": "inactive"},
      {"measurement": "growth inhibition call", "setting": "[3]", "result": "inactive"}
    ]},
    {"smiles": "O=C(C[C@@H]1CC[C@@H]2[C@H](COC[C@H](O)CN2C(=O)Nc2ccc(Cl)cc2)O1)NC1Cc2ccccc2C1", "values": [
      {"measurement": "cytotoxicity call", "setting": "[1]", "result": "inactive"},
      {"measurement": "cytotoxicity call", "setting": "[2]", "result": "inactive"},
      {"measurement": "growth inhibition call", "setting": "[3]", "result": "inactive"}
    ]},
    {"smiles": "COc1ccccc1S(=O)(=O)N(C)C[C@H]1OCc2cn(nn2)CCCC(=O)N([C@H](C)CO)C[C@H]1C", "values": [
      {"measurement": "cytotoxicity call", "setting": "[1]", "result": "inactive"},
      {"measurement": "cytotoxicity call", "setting": "[2]", "result": "inactive"},
      {"measurement": "growth inhibition call", "setting": "[3]", "result": "inactive"}
    ]},
    {"smiles": "C[C@H]1CN([C@@H](C)CO)C(=O)Cc2cc(NC(=O)Cc3ccccc3)ccc2O[C@H]1CN(C)S(=O)(=O)c1cccs1", "values": [
      {"measurement": "cytotoxicity call", "setting": "[1]", "result": "inactive"},
      {"measurement": "cytotoxicity call", "setting": "[2]", "result": "inactive"},
      {"measurement": "growth inhibition call", "setting": "[3]", "result": "inactive"}
    ]},
    {"smiles": "COCCCNC(=O)[C@@]1(Cc2ccccc2I)c2ccccc2C(=O)N(C2CCCCC2)[C@H]1c1ccc(CO)cc1", "values": [
      {"measurement": "cytotoxicity call", "setting": "[1]", "result": "inactive"},
      {"measurement": "cytotoxicity call", "setting": "[2]", "result": "active"},
      {"measurement": "growth inhibition call", "setting": "[3]", "result": "inactive"}
    ]},
    {"smiles": "C[C@H]1CN([C@@H](C)CO)S(=O)(=O)c2ccc(C#Cc3ccc(F)cc3)cc2O[C@H]1CN(C)CC1CC1", "values": [
      {"measurement": "cytotoxicity call", "setting": "[1]", "result": "inactive"},
      {"measurement": "cytotoxicity call", "setting": "[2]", "result": "inactive"},
      {"measurement": "growth inhibition call", "setting": "[3]", "result": "inactive"}
    ]},
    {"smiles": "C[C@@H]1CN([C@H](C)CO)C(=O)c2cc(C#CCN(C)C)cnc2O[C@H]1CN(C)S(=O)(=O)c1ccccc1", "values": [
      {"measurement": "cytotoxicity call", "setting": "[1]", "result": "inactive"},
      {"measurement": "cytotoxicity call", "setting": "[2]", "result": "inactive"},
      {"measurement": "growth inhibition call", "setting": "[3]", "result": "inactive"}
    ]},
    {"smiles": "OCc1ccc2c(c1)NCCO2", "values": [
      {"measurement": "cytotoxicity call", "setting": "[1]", "result": "inactive"},
      {"measurement": "cytotoxicity call", "setting": "[2]", "result": "inactive"},
      {"measurement": "growth inhibition call", "setting": "[3]", "result": "inactive"}
    ]},
    {"smiles": "CCC1C=C2C(=O)OC(=O)C2CC2=C(C(=O)OC2=O)C(OC(C)=O)C1CC", "note": "(stereo not drawn)", "values": [
      {"measurement": "cytotoxicity call", "setting": "[1]", "result": "inactive"},
      {"measurement": "cytotoxicity call", "setting": "[2]", "result": "inactive"},
      {"measurement": "growth inhibition call", "setting": "[3]", "result": "inactive"}
    ]},
    {"smiles": "CO[C@@H]1CN(C)C(=O)c2cc(NC(=O)C3CCOCC3)ccc2OC[C@H](C)N(Cc2cccnc2)C[C@@H]1C", "values": [
      {"measurement": "cytotoxicity call", "setting": "[1]", "result": "inactive"},
      {"measurement": "cytotoxicity call", "setting": "[2]", "result": "inactive"},
      {"measurement": "growth inhibition call", "setting": "[3]", "result": "inactive"}
    ]},
    {"smiles": "C[C@H]1CCCCO[C@H](CN(C)C(=O)c2ccccc2)[C@@H](C)CN([C@@H](C)CO)C(=O)c2cc(NC(=O)Nc3ccc(C(F)(F)F)cc3)ccc2O1", "values": [
      {"measurement": "cytotoxicity call", "setting": "[1]", "result": "inactive"},
      {"measurement": "cytotoxicity call", "setting": "[2]", "result": "inactive"},
      {"measurement": "growth inhibition call", "setting": "[3]", "result": "inactive"}
    ]},
    {"smiles": "COc1ccc(S(=O)(=O)N(C)C[C@@H]2Oc3c(NS(=O)(=O)c4ccc(F)cc4)cccc3C(=O)N([C@@H](C)CO)C[C@H]2C)cc1", "values": [
      {"measurement": "cytotoxicity call", "setting": "[1]", "result": "inactive"},
      {"measurement": "cytotoxicity call", "setting": "[2]", "result": "inactive"},
      {"measurement": "growth inhibition call", "setting": "[3]", "result": "inactive"}
    ]},
    {"smiles": "C[C@H]1CCCCO[C@H](CN(C)C(=O)C2CCCCC2)[C@@H](C)CN([C@@H](C)CO)C(=O)c2cc(NC(=O)Cc3ccccc3)ccc2O1", "values": [
      {"measurement": "cytotoxicity call", "setting": "[1]", "result": "inactive"},
      {"measurement": "cytotoxicity call", "setting": "[2]", "result": "inactive"},
      {"measurement": "growth inhibition call", "setting": "[3]", "result": "inactive"}
    ]},
    {"smiles": "N#CC(=Cc1ccc(O)c(O)c1)C(N)=O", "values": [
      {"measurement": "cytotoxicity call", "setting": "[1]", "result": "inactive"},
      {"measurement": "cytotoxicity call", "setting": "[2]", "result": "inactive"},
      {"measurement": "growth inhibition call", "setting": "[3]", "result": "inactive"}
    ]},
    {"smiles": "COc1ccc(NC(=O)N(C)C[C@@H]2Oc3ccc(NS(=O)(=O)c4c(C)noc4C)cc3CC(=O)N([C@H](C)CO)C[C@H]2C)cc1", "values": [
      {"measurement": "cytotoxicity call", "setting": "[1]", "result": "inactive"},
      {"measurement": "cytotoxicity call", "setting": "[2]", "result": "inactive"},
      {"measurement": "growth inhibition call", "setting": "[3]", "result": "inactive"}
    ]},
    {"smiles": "CC(C)[C@@H](N)c1ncnn1C", "values": [
      {"measurement": "cytotoxicity call", "setting": "[1]", "result": "inactive"},
      {"measurement": "cytotoxicity call", "setting": "[2]", "result": "inactive"},
      {"measurement": "growth inhibition call", "setting": "[3]", "result": "inactive"}
    ]},
    {"smiles": "COc1ccc(S(=O)(=O)N2C[C@H](O)COC[C@@H]3O[C@H](CC(=O)N[C@@H]4CCN(Cc5ccccc5)C4)CC[C@H]32)cc1", "values": [
      {"measurement": "cytotoxicity call", "setting": "[1]", "result": "inactive"},
      {"measurement": "cytotoxicity call", "setting": "[2]", "result": "inactive"},
      {"measurement": "growth inhibition call", "setting": "[3]", "result": "inactive"}
    ]},
    {"smiles": "C[C@@H]1CCCCO[C@H](CN(C)Cc2ccc3c(c2)OCO3)[C@@H](C)CN([C@@H](C)CO)C(=O)c2cc(NC(=O)Nc3ccc(F)cc3)ccc2O1", "values": [
      {"measurement": "cytotoxicity call", "setting": "[1]", "result": "inactive"},
      {"measurement": "cytotoxicity call", "setting": "[2]", "result": "active"},
      {"measurement": "growth inhibition call", "setting": "[3]", "result": "inactive"}
    ]},
    {"smiles": "COc1ccc(S(=O)(=O)N(C)C[C@@H]2OCCCC[C@H](C)Oc3ccc(NS(C)(=O)=O)cc3C(=O)N([C@H](C)CO)C[C@@H]2C)cc1", "values": [
      {"measurement": "cytotoxicity call", "setting": "[1]", "result": "inactive"},
      {"measurement": "cytotoxicity call", "setting": "[2]", "result": "inactive"},
      {"measurement": "growth inhibition call", "setting": "[3]", "result": "inactive"}
    ]},
    {"smiles": "NC1CCN(Cc2nc3ccccc3[nH]2)CC1", "values": [
      {"measurement": "cytotoxicity call", "setting": "[1]", "result": "inactive"},
      {"measurement": "cytotoxicity call", "setting": "[2]", "result": "inactive"},
      {"measurement": "growth inhibition call", "setting": "[3]", "result": "inactive"}
    ]}
  ]
}
